In all, about 110,000 compounds went through this assay and about 230 (0.21%) showed an effect of 50% or more. This is one part of the list.
target: DPAP1 (Plasmodium falciparum, UniProt Q8IIJ9); assay: primary screen, percent inhibition; read by cleavage of a fluorogenic dipeptide substrate; higher = more effect of the substance; set-up: species or system P. falciparum D10 trophozoite lysates; single well
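Also: 30 min substrate incubation versus DMSO and 10 µM JCP410 controls.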

Chain of DPAP1 (Q8IIJ9 whole entry, looked up): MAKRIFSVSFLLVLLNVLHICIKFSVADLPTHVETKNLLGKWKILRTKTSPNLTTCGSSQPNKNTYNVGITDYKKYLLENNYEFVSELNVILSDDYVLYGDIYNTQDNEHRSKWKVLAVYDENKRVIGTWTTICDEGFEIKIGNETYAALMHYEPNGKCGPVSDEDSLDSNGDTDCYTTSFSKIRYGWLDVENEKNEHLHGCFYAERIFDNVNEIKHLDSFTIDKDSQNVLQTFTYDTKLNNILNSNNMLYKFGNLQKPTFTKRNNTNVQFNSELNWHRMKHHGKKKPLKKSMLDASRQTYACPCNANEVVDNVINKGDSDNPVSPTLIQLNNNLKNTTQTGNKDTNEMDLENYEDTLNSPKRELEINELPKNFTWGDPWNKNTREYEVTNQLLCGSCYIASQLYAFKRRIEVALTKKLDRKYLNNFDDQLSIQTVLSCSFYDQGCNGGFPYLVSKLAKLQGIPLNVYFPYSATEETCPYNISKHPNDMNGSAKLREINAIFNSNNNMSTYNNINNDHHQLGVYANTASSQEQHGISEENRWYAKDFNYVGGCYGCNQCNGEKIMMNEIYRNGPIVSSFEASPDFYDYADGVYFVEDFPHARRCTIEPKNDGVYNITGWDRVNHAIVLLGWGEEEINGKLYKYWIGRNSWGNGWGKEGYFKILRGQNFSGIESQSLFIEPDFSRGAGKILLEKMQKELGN

Structure (SMILES) | % Inhibition @ 10 uM
COc1cccc(N(CC(=O)NC(C)C)S(=O)(=O)c2ccccc2)c1 | -3.25%
COc1ccccc1CNC(=O)c1nnc(-c2cccnc2)o1 | -1.14%
CN(C)C(=O)Oc1cc(=O)n2c3c(cccc13)CCC2 | -4.31%
CC(C)C[C@H](NS(=O)(=O)c1ccc(Br)cc1)C(=O)NCC#N | 14.8%
CCCSc1nc2c(c(=O)[nH]c(=O)n2C)n1CC(O)COc1ccccc1C (stereo not shown) | 3.65%
NC(=O)c1ccccc1Nc1ccc(Cl)cc1 | 4.83%
O=c1sc2ccccc2n1/C=C/c1ccccc1 | 1.83%
c1ccc2c(c1)OCC(c1csc3ncnc(N4CCCCC4)c13)O2 (stereo not shown) | -1.52%
COc1ccc(C(c2c(C)n(C)n(-c3ccccc3)c2=O)c2c(C)n(C)n(-c3ccccc3)c2=O)cc1 | -1.25%
CCOc1cc(C2C3=C(O)CCCC3=NC3=C2C(=O)CCC3)ccc1OC (stereo not shown) | 0.317%
CN(Cc1ccccc1)C(=O)CN1Cc2ccccc2C1=O | 3.62%
COc1cc(CNC(C)(C)CO)cc(Br)c1OCC(N)=O | -2.74%
CC1CCCC(NC(=O)Nc2noc3c2COc2ccccc2-3)C1C (stereo not shown) | -3.17%
CC1=Nc2ncnn2C(c2cccnc2)/C1=C(\O)OC1CCCCC1 (stereo not shown) | 1.68%
Cc1nc(CC(=O)Nc2nc(C)c(C)s2)cs1 | -4.54%
CCOC(=O)C1=C(C)OC(N)=C(C#N)C12C(=O)Nc1ccccc12 (stereo not shown) | -1.97%
CCc1ccc(OCC(=O)O/N=C(\N)c2ccccn2)c(Br)c1 | -4.84%
NC1=NC(=O)/C(=C/c2cn(Cc3ccccc3F)c3ccccc23)S1 | 2.8%
N#Cc1ccccc1NC(=O)c1cccc(F)c1 | -1.32%
O=C(O)c1ccc(-c2ccc(C(=O)O)s2)s1 | 5.42%
Cc1ccc(S(=O)(=O)N(CC(=O)NCc2ccco2)c2ccc(C)c(Cl)c2)cc1 | -2.75%
Cn1c(=O)c2c(nc(SCCCC#N)n2Cc2ccccc2F)n(C)c1=O | 4.67%
COc1ccc(C(=O)Nc2cccc(SC)c2)cc1 | 4.75%
CC1(C)CC(O)=C/C(=N/CC2NCCc3ccccc32)C1 (stereo not shown) | -0.736%
N#Cc1c(NC(=O)c2cccc(F)c2)sc2c1CCCC2 | 3.65%

Structure (SMILES) | % Inhibition @ 10 uM
COC(=O)c1c(NC2=NS(=O)(=O)c3ccccc32)sc2c1CCC(C(C)(C)C)C2 (stereo not shown) | -1.11%
CCCCCn1c(=O)c(C(=O)Nc2ccccc2)c(O)c2ccccc21 | -4.67%
CCN(CC)C(=O)Cn1cc(SCC(=O)NCc2ccco2)c2ccccc21 | -5.54%
Cn1c(=O)c2c(nc(CN3CCN(Cc4ccccc4)CC3)n2CCc2ccccc2)n(C)c1=O | -1.43%
Cc1ccc(Oc2cccc(NC(=O)c3ccc([N+](=O)[O-])cc3C(=O)O)c2)cc1C | -12.9%
CC(C)CNC(=O)c1cc2n(n1)C(C(F)(F)F)CC(c1ccc3c(c1)OCO3)N2 (stereo not shown) | 2.43%
Cc1cc(C(=O)C(=O)Nc2nncs2)c(C)n1-c1ccc(F)cc1 | 2.32%
Cc1ccc(N2CCN(c3ccc(NC(=O)C4CC=CCC4C(=O)O)cc3)CC2)cc1 (stereo not shown) | -1.61%
CC1CCCC(NC(=O)c2ccc(-n3cnc4cccnc43)cc2)C1C (stereo not shown) | -0.943%
COC(=O)c1cc(OC)c(OC)cc1NC(=O)c1ccc(Cl)cc1 | 1.54%
CSc1[nH]nc(N)c1S(=O)(=O)c1ccc(Cl)cc1 | -3.62%
Cc1ccc(S(=O)(=O)N2CC3(C)CN(S(=O)(=O)c4ccc(C)cc4)CC(C)(C2)C3=O)cc1 | 20.5%
Cc1c(CNCC(C)c2ccccc2)c(C(=O)O)c(C)n1Cc1ccccc1 (stereo not shown) | -0.439%
CN1CCN(CC(=O)N2N=C(c3ccc(Br)cc3)CC2c2nc3ccccc3[nH]2)CC1 (stereo not shown) | -3.93%
CCOC(=O)c1c(NC(=O)Nc2nnc(N(CC(C)C)CC(C)C)s2)sc2c1CCCC2 | -2.85%
O=C(Nc1ccc(Cl)cn1)c1sc2ccccc2c1Cl | 4.66%
Cc1cccc(-c2noc(CN(C(=O)c3ccccc3)C(C)C)n2)c1 | -0.0593%
N#CCc1nnc2n1CCCCC2 | 19.4%
CCC(C)NC(=O)c1ccccc1NC(=O)CN(c1cccc(F)c1)S(C)(=O)=O (stereo not shown) | -1.46%
COCCNC(=O)CSc1nc(N)c2c3c(sc2n1)CCCC3 | 3.13%
C/C(=N\CCc1c(C)[nH]c2ccc(C)cc12)C1=C(O)CC(c2ccccc2)CC1=O (stereo not shown) | -2.5%
O=C(O)c1ccc2c(c1)C(=O)N(c1cccc(C(F)(F)F)c1)C2=O | 2.17%
C#CCn1c(COc2cccc(OC)c2)nc2ccccc21 | -5.92%
Cc1ccc(C2SCC(=O)Nc3c2c(O)nn3C2CCOC(C)(C)C2)cc1 (stereo not shown) | -8.11%

— PMC6919601, “Identification of Plasmodium dipeptidyl aminopeptidase allosteric inhibitors by high throughput screening” (PLoS ONE, 2019)
